# Results taken from PubChem BioAssay AID1508623 (National Center for Advancing Translational Sciences (NCATS), 2021).
# The whole screen tested about 48,000 compounds, of which about 450 (0.94%) were called active. Another 19% or so got no clear call; they are omitted. Calls come from the whole dose curve; as a rule, active = well fitted inhibition curve with a large enough effect; inconclusive = small, poorly fitted or top-dose-only effect; inactive = no such curve, though single readings can be large or run the other way. The list shows a part of the results.
# Assay: Primary qHTS for Identification of Small Molecule Inhibitors of Huntingtin Promoter Activity; note: nearly all actives have a fitted effect of over 50% in size
# Settings: HEK293 HTT promoter firefly luciferase reporter (activity 0% = vehicle and -100% = no light), 24 h; series mostly up to 57.5 µM; activity change, negative = inhibition: at the top concentration
# Procedure, shortened: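 HEK293 luciferase promoter-reporter cells (2,500/well) plated 24 h, then compounds added at up to 57.5 uM final for 24 h at 37 °C. Firefly luminescence by Dual-Glo, normalized to vehicle (0%) and zero RLU (-100%).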
row,Structure (SMILES),"activity change, negative = inhibition"
1,Cc1ccc(C)c(Cn2c(=O)n(CCCCC(=O)NCc3ccccc3Cl)c(=O)c3ccccc32)c1,inactive: 2.16%
2,CCn1ccc2cc(S(=O)(=O)N3CCC(C(=O)NCc4cccc(C)c4)CC3)ccc21,inactive: -28.9%
3,CCOc1ccccc1NC(=O)Cn1ccn(-c2ccccc2)c(=O)c1=O,inactive: -18.1%
4,COc1ccccc1N1CCN(c2csc3ccc(Cl)cc3c2=O)CC1,inactive: -8.32%
5,CCCCNC(=O)c1cc(Sc2ccc(OCC)cc2)nc2ccccc12,inactive: -18.3%
6,CCn1cc(C(=O)NCc2ccc(C)cc2)c(=O)c2cc(S(=O)(=O)N3CCC(C)CC3)ccc21,inactive: -0.99%
7,O=C(CN1C(=O)C2CCCCN2c2ccc(C(=O)N3CCCC3)cc21)NCc1cccc(Cl)c1 (centres undefined),inactive: -49%
8,CC(=O)[C@H]1CC[C@H]2[C@@H]3C[C@H](C)C4=CC(=O)CC[C@]4(C)[C@H]3[C@@H](O)C[C@]12C,inactive: -1.77%
9,Cc1ccc(Cl)c2sc(NC(=O)CS(=O)(=O)c3ccc(Cl)cc3)nc12,inactive: -9.79%
10,CCOc1ccc(CNS(=O)(=O)c2c(C(=O)N3CCCCCC3)c(C)n(C)c2C)cc1OC,inactive: -2.8%
11,CCOC(=O)OC(C)OC1=C(C(=O)Nc2ccccn2)N(C)S(=O)(=O)c2ccccc21 (centres undefined),inactive: 7.42%
12,Cc1ccc(NC(=O)Nc2nnc(N3CCCC3)s2)c(C)c1,inactive: 7.47%
13,COc1ccc(-c2cn3nc(N4CCC(C(=O)Nc5cccc(Cl)c5)CC4)sc3n2)cc1,inactive: 14.6%
14,Cc1ccc(CNC(=O)Cc2coc3cc(C)cc(C)c23)cc1,inactive: -7.82%
15,CCCCN(C)C(=O)C1CCCN(c2ncnc3onc(-c4ccc(F)cc4)c23)C1 (centres undefined),inactive: -22.7%
16,CCN(CC)S(=O)(=O)c1ccc2c(c1)c(=O)c(C(=O)NCc1ccccc1)cn2C,inactive: -9.91%
17,COc1ccc(CNC(=O)CCC(=O)N2CC3CCCN3c3ccccc32)cc1 (centres undefined),inactive: -1.97%
18,COc1ccccc1CNC(=O)c1ccc(CS(=O)(=O)c2ccccc2C)o1,inactive: -12.9%
19,COc1cc(CN(CC2CCCO2)C(=O)c2ccc(F)cc2)cc(OC)c1OC (centres undefined),inactive: -3.46%
20,CCCNC(=O)c1ccc(-n2c(-c3ccccc3)cc3c2CCCCC3)cc1,inactive: 12%
21,COc1ccccc1CNC(=O)C(CC(C)C)NS(=O)(=O)c1ccc2c(c1)oc(=O)n2C (centres undefined),inactive: -12%
22,Cn1c(=NC(=O)c2ccc3c(c2)OCCO3)sc2cc(S(C)(=O)=O)ccc21,inactive: -12.9%
23,CCC(=O)N1CCc2cc(S(=O)(=O)NCCC(=O)NCc3ccccc3Cl)ccc21,inactive: -8.39%
24,Cc1ccccc1-c1noc(C(C)NC(=O)c2ccco2)n1 (centres undefined),inactive: -10.5%

row,Structure (SMILES),"activity change, negative = inhibition"
1,CCOC(=O)c1ccc(NC(=O)C2CCCN(c3ccc(Sc4ccc(C)cc4)nn3)C2)cc1 (centres undefined),inactive: -26.3%
2,COC(=O)c1ccc(-n2nnc(-c3nc(-c4ccc5c(c4)OCO5)no3)c2C)cc1,inactive: -6.78%
3,CC(C)c1nc2ccc(C(=O)NCCCN3CCN(c4ccccc4F)CC3)cc2o1,inactive: -27.3%
4,CCN(C(=O)CN(C)S(=O)(=O)c1ccc2c(c1)c(=O)n(C)c(=O)n2C)c1ccc(OC)cc1,inactive: -11.9%
5,Cc1cc(Br)ccc1NC(=O)CCS(=O)(=O)c1cccc2nsnc12,inactive: -19.9%
6,CC(=O)NCCNc1nc2c(S(=O)(=O)c3ccc(C)c(C)c3)nnn2c2ccc(Cl)cc12,inactive: 12.6%
7,Cc1ccc(C(C)C)c(OCC(=O)Nc2ccc(S(=O)(=O)Nc3onc(C)c3C)cc2)c1,inactive: 4.23%
8,N#Cc1ccc(CN2C(=O)c3ccccc3Sc3ccc(C(=O)OCc4ccco4)cc32)cc1,inactive: -19%
9,Cc1ccc(C2c3c(oc4ccccc4c3=O)C(=O)N2c2ccc(C)cn2)cc1 (centres undefined),inactive: -9.11%
10,CCOc1ccc2nc(NC(=O)CS(=O)(=O)c3ccc(Cl)cc3)sc2c1,inactive: -20.3%
11,Cc1ccc(-c2nnc(C3CCN(S(=O)(=O)c4ccc(C)c(C)c4)CC3)o2)cc1,inactive: -11.6%
12,CCOc1ccccc1NC(=O)CN1C(=O)CC(c2ccc(OC)c(OC)c2)Sc2ccccc21 (centres undefined),inactive: -29.7%
13,Cn1c(-n2cccc2)c(-c2c(-c3ccccc3)[nH]c3c2c(=O)n(C)c(=O)n3C)c(=O)n(C)c1=O,inactive: -4%
14,CCCCOC(=O)c1ccc(NC(=O)CSc2nc3c(c(=O)[nH]2)CCCC3)cc1,inactive: -16.1%
15,Cc1ccccc1CN1C(=O)c2ccccc2Sc2ccc(C(=O)NC(C)c3ccccc3)cc21 (centres undefined),inactive: -27.3%
16,CCN1CCOC(=O)C1CC(=O)Nc1cc(C)cc(C)c1 (centres undefined),inactive: 0%
17,O=C(NCc1ccc(F)cc1)c1cc2c(=O)n3ccccc3nc2s1,inactive: 13%
18,Cc1ccc(CNC(=O)Cn2c(=O)n(-c3ccc(Cl)cc3)c(=O)c3c(C)c(C)sc32)cc1,inactive: -6.59%
19,COc1ccc(OC)c(/C=C(/C#N)c2nc(-c3ccc(-c4ccccc4)cc3)cs2)c1,inactive: -9.22%
20,Cc1cc(C)cc(NS(=O)(=O)c2ccc3[nH]cc(C(=O)N(C)Cc4ccccc4)c(=O)c3c2)c1,inactive: -5.21%
21,CCCCNc1nc2c(S(=O)(=O)c3ccc(C)c(C)c3)nnn2c2ccsc12,inactive: -23.9%
22,COc1cc(Nc2ncc3c(n2)CCN(Cc2cc(Br)cs2)C3)cc(OC)c1,inactive: -16.6%
23,COC(=O)c1ccccc1NC(=O)c1ccc2c(c1)CCN2S(C)(=O)=O,inactive: -13.2%
24,Cc1cc(Nc2ccc(F)cc2)n2c(nc3ccccc32)c1C#N,inactive: -23.5%

row,Structure (SMILES),"activity change, negative = inhibition"
1,Cc1ccc(CSc2nc3c([nH]c4ccccc43)c(=O)n2C)cc1,inactive: 0.365%
2,Cc1c(-c2nc(-c3ccccc3)no2)nnn1-c1cccc(C(F)(F)F)c1,inactive: 20.7%
3,COc1ccccc1CNC(=O)c1ccc2c(c1)nc(C)n2-c1ccccc1OC,inactive: -0.899%
4,Cc1nn2c(-c3ccco3)ccnc2c1-c1ccc(F)cc1,inactive: 9.6%
5,Cc1nc2ccccn2c(=O)c1NC(=O)c1ccc(C(F)(F)F)cc1,inactive: 13.9%
6,COc1ccc(NC(=O)c2cccn2-c2nnc(N3CCCCC3)s2)cc1Cl,inactive: -35.9%
7,CCOc1ccccc1OCCN[C@H](C)Cc1ccc(OC)c(S(N)(=O)=O)c1,inactive: -5.17%
8,Cc1ccc(NC(=O)Cn2c(=O)n(CCCCC(=O)NCc3ccccc3Cl)c(=O)c3ccccc32)cc1C,inactive: 2%
9,CCOc1ccc(NC(=O)Cn2c(C)cc3ccccc3c2=O)cc1,inactive: -8.43%
10,O=C(O)c1ccc(-n2c(/C=C\c3ccc(O)cc3)nc3ccccc3c2=O)cc1,inactive: -14.6%
11,Cc1ccc(C2=Nc3ccccc3N(CC(=O)NCc3ccc(F)cc3)C(=O)C2)cc1C,inactive: 44.2%
12,CCOC(=O)c1ccccc1NC(=O)c1sc2ncn(Cc3cccc(F)c3)c(=O)c2c1C,inactive: -9.27%
13,CC1=C(C(=O)Nc2cccnc2)C(c2ccc(Cl)cc2)n2nc(-c3ccccc3)nc2N1 (centres undefined),inactive: -18.6%
14,COc1ccc(OC)c(S(=O)(=O)NCc2cccn2Cc2cccc(C)c2)c1,inactive: -13.5%
15,COc1cn(CC(=O)Nc2cccc(C)c2C)c(CN2CCCCC2)cc1=O,inactive: -17.1%
16,Cc1ccc(C)c(NC(=O)CSc2c3c(nc4ccc(Cl)cc24)CCCC3)c1,inactive: -11.1%
17,COc1ccc(C(=O)Nc2cccc(OCc3cc(=O)n4c5c(sc4n3)CCCC5)c2)cc1,inactive: -13.5%
18,Cn1c(=O)c2c(nc3n(-c4ccc(O)cc4)c(-c4ccc(Br)cc4)cn23)n(C)c1=O,inactive: 4.58%
19,CCn1cc(C(=O)O)c(=O)c2cnc(N3CCCC3)nc21,inactive: 3.13% [at 11.5 µM]
20,COc1ccc(CNC(=O)CSc2nc3ccccc3nc2Cc2ccccc2OC)cc1,inactive: -6.41%
21,COC(=O)c1sc(NC(=O)/C=C/c2ccc(OC)c(OC)c2)c(C(=O)OC)c1C,inactive: 29.9%
22,COc1cccc(C(=O)c2cn(CC(=O)NCc3ccccc3)c3nc(C)ccc3c2=O)c1,inactive: -0.278%
23,COc1ccc(OCc2nc3c4c(-c5ccccc5)c(-c5ccccc5)oc4ncn3n2)cc1,inactive: 17%
24,CC(C)NC(=O)CCCN1C(=O)CCn2nc(-c3cccn3C)cc21,inactive: 1.39%

row,Structure (SMILES),"activity change, negative = inhibition"
1,CCN1CCN(c2cc3c(cc2F)c(=O)c(S(=O)(=O)c2ccccc2)cn3C)CC1,inactive: -9.27%
2,COc1ccccc1NC(=O)CSc1nc2ccccc2c2nc(-c3ccccc3)nn12,inactive: 4.94%
3,Cc1[nH]c2ccccc2c1C1N2CC3(C)CN1CC(C)(C2)C3=O (centres undefined),inactive: -0.595%
4,Cc1nn(C)c2c1c(C(F)(F)F)cc(=O)n2C(C)C(=O)NCc1ccc(Cl)cc1 (centres undefined),inactive: -4.86%
5,O=C(Nc1ccc(Br)cc1F)N1CCC(CN2CCCC2)CC1,inactive: -23.3%
6,O=S(=O)(O)CCS,inactive
7,Cc1cccc(CNC(=O)CSCc2cnn(-c3ccccc3)c2-n2cccc2)c1,inactive: -23.8%
8,CCOC(=O)c1ccc(NS(=O)(=O)c2cc(-c3onc(C)c3C)ccc2C)cc1,inactive: -19.6%
9,COc1cc(OC)c(C2Nc3c(C)cccc3-c3cc(C)nn32)cc1OC (centres undefined),inactive: -28.1% [at 11.5 µM]
10,CC1(C)SCCN(S(=O)(=O)c2ccc(OCC#CCO)cc2)[C@@H]1C(=O)NO,inactive: 1.99%
11,CC1=C(c2ccc(C)cc2)S(=O)(=O)NC1=NCc1cccc(F)c1,inactive: -17%
12,CCN1c2ccccc2-c2nc(SCC(=O)NCc3ccc(C)cc3)ncc2S1(=O)=O,inactive: -22.4%
13,CCOC(=O)c1ccc(NC(=O)Cn2cc(C(=O)c3ccc(CC)cc3)c(=O)c3ccc(C)nc32)cc1,inactive: -3.5%
14,COc1ccc(CNC(=O)c2cnc3sc(N4CCCCCC4)nn3c2=O)cc1,inactive: 10.1%
15,Cc1sc2ncn(CC(=O)N3CCN(c4ccc(F)cc4)CC3)c(=O)c2c1S(=O)(=O)N1CCC(C)CC1,inactive: -27.5%
16,COC(=O)C1=C(c2ccccc2)c2ccccc2S(=O)(=O)N1CC(=O)Nc1ccc(F)c(F)c1,inactive: -33.8%
17,Cc1ccc(CNC(=O)Cn2c(=O)cc(C(F)(F)F)c3c(C)nn(C)c32)cc1,inactive: -18.2%
18,CCOc1ccc(-c2nc(Cn3c(=O)cc(-c4ccccc4)c4c(C)nn(C)c43)c(C)o2)cc1,inactive: 25.7%
19,CCOc1ccc(NC(=O)CN(c2ccc(CC)cc2)S(=O)(=O)c2c(C)noc2C)cc1,inactive: -25.8%
20,Cc1ccc(CNC(=O)C2CCN(S(=O)(=O)c3c(C)noc3/C=C/c3cccs3)CC2)cc1,inactive: -15.2%
21,O=C(CCS(=O)(=O)c1cc2c(cc1Cl)NC(=O)CO2)NCc1ccccc1Cl,inactive: -5.16%
22,CC(C)Oc1ccc(CNC(=O)c2ccc(CN3CC(=O)N4CCCCC4C3=O)cc2)cc1 (centres undefined),inactive: -12.6%
